Hit rate of the full screen: of about 110,000 compounds, about 230 (0.21%) showed an effect of 50% or more. Some of the results follow.
target: DPAP1 (Plasmodium falciparum, UniProt Q8IIJ9); assay: primary screen, percent inhibition; read by cleavage of a fluorogenic dipeptide substrate; higher = more effect of the substance; design: species or system P. falciparum D10 trophozoite lysates; single well
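Note: 30 min substrate incubation versus DMSO and 10 µM JCP410 controls.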

Sequence of DPAP1 (Q8IIJ9 whole entry, looked up): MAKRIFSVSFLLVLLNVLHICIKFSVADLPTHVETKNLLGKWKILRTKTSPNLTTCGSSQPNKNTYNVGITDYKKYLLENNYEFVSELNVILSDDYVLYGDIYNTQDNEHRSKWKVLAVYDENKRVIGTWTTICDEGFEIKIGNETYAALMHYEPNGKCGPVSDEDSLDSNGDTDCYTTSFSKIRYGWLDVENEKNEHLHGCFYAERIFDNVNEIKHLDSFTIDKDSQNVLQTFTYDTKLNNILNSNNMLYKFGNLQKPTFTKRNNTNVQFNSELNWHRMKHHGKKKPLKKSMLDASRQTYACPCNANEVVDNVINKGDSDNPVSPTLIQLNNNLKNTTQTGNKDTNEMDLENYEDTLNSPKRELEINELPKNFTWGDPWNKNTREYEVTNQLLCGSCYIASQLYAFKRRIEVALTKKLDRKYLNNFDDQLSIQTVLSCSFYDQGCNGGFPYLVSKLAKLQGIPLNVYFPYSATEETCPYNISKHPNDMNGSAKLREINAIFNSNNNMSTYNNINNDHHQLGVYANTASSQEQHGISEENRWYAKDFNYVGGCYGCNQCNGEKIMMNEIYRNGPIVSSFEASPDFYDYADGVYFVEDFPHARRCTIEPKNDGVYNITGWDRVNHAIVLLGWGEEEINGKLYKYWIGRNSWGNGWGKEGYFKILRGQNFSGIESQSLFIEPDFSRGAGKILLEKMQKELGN

| SMILES | % Inhibition @ 10 uM |
| --- | --- |
| O=C1NC(=O)/C(=C\c2cccc([N+](=O)[O-])c2)S1 | -5.26% |
| CSc1ccc(CCNC(=O)CC(C)n2nc(C)cc2C)cc1 (stereo not shown) | 1.46% |
| O=c1c(=O)n(Cc2ccccc2F)ccn1Cc1ccccc1 | 0.658% |
| CC(=O)Nc1ccc(C(=O)Nc2cccc(C(F)(F)F)c2)cc1 | -1.98% |
| Cc1ccc(-c2nc(-n3nc(C)cc3C)c3ccccc3n2)cc1 | 3.18% |
| COc1ccc(Nc2cc(C)nc3ccccc23)cc1 | 3.04% |
| O=S(=O)(c1ccc2[nH]c3c(c2c1)CCCC3)N1CCCCC1 | 2.47% |
| COC(=O)c1ccc(NC(=O)CCCC(=O)O)cc1 | -6.29% |
| O=C(O)CNC(=O)/C(=C/c1ccccc1)NC(=O)c1cccc(Br)c1 | 0.458% |
| COc1ccc(CCNC(=O)c2c(N)no[n+]2[O-])cc1OC | -2.28% |
| Cc1ccccc1NC(=O)c1ccccc1Br | 0.62% |
| COc1ccc2[nH]c3c(=O)n(CCCCCC(=O)NCc4cccnc4)c(=S)[nH]c3c2c1 | -0.431% |
| OCC1CCCN1Cc1ccccc1F (stereo not shown) | 1.08% |
| O=C(CCc1ccccc1)NCc1ccccn1 | -15.4% |
| O=C(Nc1ccc(S(=O)(=O)N2CCCCCC2)cc1)c1ccc(F)cc1 | 4.12% |
| CCOc1ccc(/N=C2/S/C(=C\c3ccc(O)c(OC)c3)C(=O)N2CC)cc1 | 5.28% |
| CC1=C(c2ccccc2)SC2=NCCN21 | 4.18% |
| COc1ccc(CCNC(=O)c2ccccc2OC)cc1OC | 0.147% |
| CC1=C(C(=O)OCCOc2ccccc2)C(c2ccc(O)cc2)C2=C(O)CC(C)(C)CC2=N1 (stereo not shown) | 21.6% |
| CC1(C)CNC(=O)c2sc(N3CCOCC3)nc2C1 | 5.2% |
| CCOc1cc(C#N)c(NC(=O)c2ccc(OC)c(OC)c2)cc1OCC | 1.89% |
| CCN(CC)S(=O)(=O)c1ccc(NC(=O)Cc2cccc3ccccc23)cc1 | -2.76% |
| CN(CCCNC(=O)Cn1c(=O)c2cccn2c2cccnc21)Cc1ccccc1 | -2.97% |
| Nc1ccc2oc(-c3cc(Cl)ccc3Cl)nc2c1 | 6.09% |
| NC(=O)CCC1COc2ccccc2O1 (stereo not shown) | -7.24% |
| CC(NC(=O)CN1CCN(C)CC1)C1CC2CCC1C2 (stereo not shown) | 0.392% |

| SMILES | % Inhibition @ 10 uM |
| --- | --- |
| COc1cc(Br)cc(CN2CC(C)OC(C)C2)c1O (stereo not shown) | -3.42% |
| O=C(Nc1ccccc1F)c1cccc(F)c1 | 0.467% |
| COc1ccc(C2CC(c3ccc(C)cc3)=NN2C(=O)CCCC(=O)O)cc1OC (stereo not shown) | -13% |
| O=C(NCCc1ccc(Cl)cc1)C(=O)NCc1ccc2c(c1)OCO2 | 1.64% |
| Cc1ccccc1-c1n[nH]c(SCc2cc(=O)n3nc(C4CC4)sc3n2)n1 | -6.45% |
| CC(C)CN(CCNC(=O)C1CCCN(S(=O)(=O)N2CCOCC2)C1)CC(C)C (stereo not shown) | 4.83% |
| FC(F)(F)c1cccc(CN2CCN(c3ccccn3)CC2)c1 | -0.294% |
| O=C(O)COc1ccc(C=C2C(=O)c3ccccc3C2=O)cc1Cl | -3.41% |
| O=C1CSC(=O)N1Cc1ccc2ccccc2c1 | 1.62% |
| O=C1c2ccccc2C(=O)N1c1ccccc1C(F)(F)F | -1.98% |
| CCOc1ccccc1N1CCN(C(=O)COc2ccc(Cl)cc2C)CC1 | -3.39% |
| O=C(c1cc2cc3ccc(Cl)cc3nc2o1)N1CCN(Cc2ccc3c(c2)OCO3)CC1 | -9.18% |
| CCc1ccccc1-n1nnc(-c2nc(-c3ccc(Cl)cc3)no2)c1N | 2.19% |
| CN1CCC(N(C)Cc2ccc(F)cc2F)CC1 | -4.5% |
| COc1cc2c(cc1OC)C(=O)Cc1ccccc1S2 | -12.4% |
| CC1CCC(NC(=O)c2cc(C3CC3)[nH]n2)CC1 (stereo not shown) | 0.181% |
| CC(C)(C)NC(=O)[C@@H]1CCCN1C(=O)OC(C)(C)C | 3.05% |
| COc1ccc(CNC(=O)c2cc(=O)c3ccccc3o2)cc1 | 5.06% |
| Cc1cc(/C=C2\NC(=O)NC2=O)c(C)n1-c1ccccc1F | -11.6% |
| O=C(Nc1ncc(Br)cc1Br)c1cccc2ccccc12 | -4.21% |
| O=C1CCCN1CCCNc1nc(-c2cccc(Cl)c2)c2c(n1)-c1ccccc1OC2 | 3.92% |
| COc1cccc(C(=O)N2CCC(C(=O)Nc3cc(C)cc(C)c3)CC2)c1 | -3.26% |
| COc1ccc(N2CCN(C(=O)COc3ccc(S(=O)(=O)NC(C)C)cc3)CC2)cc1 | 1.62% |
| OC1CCCN(Cc2cccc(Br)c2)C1 (stereo not shown) | 2.33% |
| CCOC(=O)C1=CN(C)C=C(C(=O)OCC)C1c1ccc(OC)c(OCc2ccccc2)c1 | 3.26% |
| CCOc1ccc(-n2c(SCc3nc(-c4ccc(C)cc4)no3)nnc2-c2ccncc2)cc1 | 4.47% |

| SMILES | % Inhibition @ 10 uM |
| --- | --- |
| COc1ccc2c(=O)c(C(=O)O)c(-c3ccc4c(c3)OCO4)n(C)c2c1 | 0.245% |
| COc1cc(CN(C)CCN(C)C)ccc1OCc1ccccc1 | -3.42% |
| O=C(Nc1cccc(Cl)c1)N1CCN(c2ccccc2)CC1 | -1.36% |
| CCc1nnc(NC(=O)CCc2nc(C3=CCN(C)CC3)no2)s1 | -6.59% |
| COc1ccc(-c2nc(C#N)c(NCCCN3CCOCC3)o2)cc1 | -3.23% |
| Cc1ccc(C(=O)NCc2cccc(CNC(=O)c3ccc(C)cc3)c2)cc1 | -3.18% |
| Cc1ccc(NC(=O)C2CCCN2C(=O)OCc2ccccc2)c(C)c1 (stereo not shown) | -1.88% |
| CCOc1cc(C2NC(C(=O)O)CS2)ccc1OC (stereo not shown) | -2.07% |
| CCOc1ccc2nc(Nc3nc(C)c(Cc4ccccc4)c(O)n3)nc(C)c2c1 | 0.163% |
| CCOc1cccc(C(=O)Nc2nn3c(-c4ccc(OC)c(OC)c4)nnc3s2)c1 | 0.229% |
| C=CCCCC(=O)NCC1CCCO1 (stereo not shown) | 4.55% |
| c1ccc(NC(c2ccccc2)c2ccncc2)cc1 (stereo not shown) | 4.57% |
| CN(Cc1ccccc1)Cc1ccncc1 | -4.95% |
| CC1=C(C(=O)Nc2ccccc2C)C(c2cccnc2)n2nc(CCCO)nc2N1 (stereo not shown) | 2.93% |
| O=C1CC(NC2CCCC2)C(=O)N1c1ccc(Br)cc1 (stereo not shown) | 3.17% |
| CCO/C(O)=C1\C(C)=NC(=S)NC1c1ccc2c(c1)OCO2 (stereo not shown) | 0.343% |
| CCC(Oc1ccccc1)C(=O)Nc1ccc(C(C)=O)cc1 (stereo not shown) | -8.59% |
| CCOC(=O)N1CCN(C(=O)Cn2nc(Cc3ccncc3)c3ccccc3c2=O)CC1 | -6.52% |
| COc1ccc(C(=O)Nc2ccccc2C(=O)NCC(C)C)cc1 | -6.17% |
| CCCn1cnc2cc(NC(=O)c3ccco3)ccc21 | 2.4% |
| COc1ccc(C2NC(=O)N(C)C3=C2C(=O)N(Cc2ccccc2)C3)cc1 (stereo not shown) | -3.07% |
| Cc1ccc2nc3c(O)n(CC(=O)N4CCN(C(=O)c5ccco5)CC4)ncc-3c2c1 | -4.78% |
| Cc1ccc(-n2nc3c(N4CCCC(C(=O)NCCN(C)C)C4)nnc(C)c3c2C)cc1 (stereo not shown) | 2.75% |
| COC(=O)C1=C(C)N=c2s/c(=C\c3cccc(Br)c3)c(=O)n2C1c1ccccc1 (stereo not shown) | -3.69% |
| O=C(c1ccc(Cl)cc1)N1CCN(c2ccccc2)CC1 | -3.92% |
| Cc1cccc(NC(=O)CCC(=O)O)c1 | -0.192% |

| SMILES | % Inhibition @ 10 uM |
| --- | --- |
| O=C(c1ccc2c(c1)sc1nc(-c3ccc(F)cc3)cn12)N1CCOCC1 | 26% |
| CCn1cc(/C=C(\NC(=O)c2ccco2)C(=O)NCCc2c[nH]c3ccccc23)c2ccccc21 | -1.74% |
| O=C(NCc1cccnc1)c1cc2c(=O)oc3ccccc3c2s1 | -2.01% |
| O=C(CC1(O)C(=O)Nc2ccc(Br)cc21)c1ccc(Cl)s1 (stereo not shown) | 0.317% |
| COCCN1C(=O)C(O)=C(C(=O)c2cccs2)C1c1ccccc1F (stereo not shown) | -5.34% |
| COc1ccc(-c2nc3c4ccccc4nc(S)n3n2)cc1 | -0.326% |
| Cc1cc(N2CCOCC2)nc(-c2ccccc2O)n1 | 4.63% |
| O=C1CC(Cc2ccc(Cl)cc2)C(=O)N1c1ccncc1 (stereo not shown) | 0.415% |
| CC(=O)N(C)c1ccc(NC(=O)CCC(=O)O)cc1 | -3.42% |
| C=CCOC(=O)c1sc(NC(=O)c2ccc(Cl)cc2)nc1C | 0.389% |
| O=C(CNc1ncnc2onc(-c3ccc(F)cc3)c12)N(Cc1cccs1)C1CCCC1 | -0.495% |
| Cc1ccc(C2Nc3ccccc3N=C3CC(c4cccs4)CC(O)=C32)s1 (stereo not shown) | -2.83% |
| CCOC(=O)c1c(C)[nH]c(C)c1C#N | 1.63% |
| Cc1cc(C)cc(NS(=O)(=O)c2ccc(NC(=O)COc3cccc(C)c3)cc2)c1 | 2.73% |
| COc1cccc(/C=C/C(=O)c2c(O)cc(C)oc2=O)c1O | 4.73% |
| COc1ccc(-c2nc(SC)n(S(=O)(=O)c3ccccc3)n2)cc1 | 2.46% |
| CC(C)C(=O)N1CCN(c2ccc(NC(=O)c3ccc(C#N)cc3F)cc2Cl)CC1 | 1.84% |
| Cc1ccc(C2C3=C(O)CC(c4ccc(Cl)cc4)CC3=Nc3ncnn32)cc1 (stereo not shown) | -3.53% |
| O=S(=O)(Nc1nc2ccccc2nc1Nc1ccc2ccccc2c1)c1ccccc1 | 4.44% |
| CCOc1ccccc1C1C2=C(O)CC(C)(C)CC2=NC(C)=C1C(=O)Nc1ccccc1C (stereo not shown) | 6.98% |
| CCOC(=O)C1=C(CSc2nnc(N)s2)NC(=O)NC1c1cc(C)ccc1C (stereo not shown) | -0.834% |
| CCc1nnc(NC(=O)C(=O)c2cc(C)n(-c3ccc(F)cc3)c2C)s1 | 2.32% |
| COc1ccc(Br)cc1C1CC(=O)Nc2c1c(C)nn2-c1nc2ccccc2s1 (stereo not shown) | -1.11% |
| CCN(CC)C(=O)C1CCCN(Cc2c(C)n(C)n(-c3ccccc3)c2=O)C1 (stereo not shown) | -4.98% |
| CNCCn1ccc2ccccc21 | 1.63% |
